Laboratory results reported in the supplement of paper PMC4604168 (melanoma cell lines).
The list shows a part of the results. Single values are uncertain, as repeats are few or missing.

Assays:
Test in all cases: cell count relative to DMSO control; melanoma cells; higher = more viable cells
Settings in all cases: library dose: standard library concentration; 72 h
[1] = system: G361
[2] = system: IPC-298
[3] = system: IST-MEL1
[4] = system: LB2518-MEL
[5] = system: LOXIMVI
[6] = system: MEL-HO
[7] = system: MZ2-MEL
[8] = system: MeWo
[9] = system: RPMI7951
[10] = system: RVH-421
[11] = system: SkMel28
[12] = system: SkMel2
[13] = system: SkMel30
[14] = system: SkMel5
[15] = system: UACC257
[16] = system: UACC62
[17] = system: WM115
[18] = system: WM1716
[19] = system: WM3526
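Also: cells treated in 1,536-well plates, then fixed and DAPI-stained, with nuclei counted from automated high-throughput microscope images.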

Row | SMILES | cell count [1] | cell count [2] | cell count [3] | cell count [4] | cell count [5] | cell count [6] | cell count [7] | cell count [8] | cell count [9] | cell count [10] | cell count [11] | cell count [12] | cell count [13] | cell count [14] | cell count [15] | cell count [16] | cell count [17] | cell count [18] | cell count [19]
1 | Nc1nc(F)nc2c1ncn2[C@@H]1O[C@H](CO)[C@@H](O)[C@@H]1O [fludarabine] + Cc1cc([N+](=O)[O-])ccc1NS(=O)(=O)c1cc(Cl)ccc1Cl [FH535] (first compound 1 µM, partner dose 5 µM) | 46.7% | 50.2% | 48.7% | 86.7% | 73% | 49.5% | 81% | 82.6% | 63.7% | 65.6% | 9.85% | 4.96% | 22.1% | 23.4% | 50.3% | 84.5% | 81.1% | 87.4% | 32.5%
2 | Nc1ncn([C@H]2C[C@H](O)[C@@H](CO)O2)c(=O)n1 [decitabine] + O=C1NC(=O)/C(=C/c2ccc(-c3ccc(F)cc3O)o2)S1 [AS252424] (first compound 0.5 µM, partner dose 5 µM) | 69.7% | 55.1% | 80.5% | 80.9% | 114% | 63.8% | 80.6% | 69.1% | 80.8% | 85% | 81.1% | 83.2% | 123% | 68.6% | 116% | 73.3% | 85.7% | 75.2% | 73.7%
3 | Nc1ccn([C@@H]2O[C@H](CO)[C@@H](O)C2(F)F)c(=O)n1 [gemcitabine] + COc1cc(N2CCC(N3CCN(C)CC3)CC2)ccc1Nc1ncc(Cl)c(Nc2ccccc2S(=O)(=O)C(C)C)n1 [NVP-TAE684] (first compound 0.002 µM, partner dose 0.4 µM) | 46.4% | 62.5% | 37.4% | 54.6% | 114% | 57.9% | 89.3% | 32.5% | 55.2% | 74.9% | 97.4% | 73.2% | 148% | 80.6% | 110% | 65.4% | 62% | 63.2% | 87.1%
4 | Nc1ccn([C@@H]2O[C@H](CO)[C@@H](O)C2(F)F)c(=O)n1 [gemcitabine] + COc1ccc(COc2ccc(Cc3cnc(N)nc3N)cc2OC)cc1 [GW2580] (first compound 0.002 µM, partner dose 5 µM) | 66.7% | 52.5% | 50.4% | 76.8% | 83.5% | 69.9% | 81% | 51.1% | 87.4% | 81.2% | 123% | 111% | 108% | 87.6% | 96.8% | 99.2% | 74.5% | 75.6% | 113%
5 | CC(=O)c1c(C)c2cnc(Nc3ccc(N4CCNCC4)cn3)nc2n(C2CCCC2)c1=O [palbociclib] + Cn1cc(/C=C2\C(=O)Nc3cccnc32)c2ccccc21 [GW441756] (first compound 0.2 µM, partner dose 2 µM) | 77.5% | 98.4% | 67.5% | 74.2% | 72% | 82.4% | 75.6% | 58.4% | 60.1% | 78.9% | 51.1% | 62.3% | 81.5% | 54.2% | 79% | 46.5% | 63.4% | 49.3% | 57.8%
6 | Nc1ccn([C@@H]2O[C@H](CO)[C@@H](O)C2(F)F)c(=O)n1 [gemcitabine] + COC(=O)c1sccc1S(=O)(=O)Nc1ccc(Nc2ccccc2)cc1OC [GSK0660] (first compound 0.002 µM, partner dose 5 µM) | 68.6% | 58.9% | 51.3% | 80.1% | 102% | 71.8% | 82.8% | 50.3% | 77.7% | 80.4% | 106% | 99% | 90% | 92.2% | 98.9% | 90.5% | 86.2% | 72.2% | 115%
7 | Nc1ccn([C@@H]2O[C@H](CO)[C@@H](O)C2(F)F)c(=O)n1 [gemcitabine] + Oc1nc(-c2ccc(C(F)(F)F)cc2)nc2c1CSCC2 [XAV939] (first compound 0.002 µM, partner dose 10 µM) | 49.5% | 50.4% | 46.7% | 56.2% | 92.3% | 64.2% | 73.5% | 50.1% | 65% | 63% | 60.5% | 97.1% | 96.9% | 69.6% | 77.3% | 90.2% | 75.7% | 57.3% | 135%
8 | Nc1nc(F)nc2c1ncn2[C@@H]1O[C@H](CO)[C@@H](O)[C@@H]1O [fludarabine] + Cn1cc(/C=C2\C(=O)Nc3cccnc32)c2ccccc21 [GW441756] (first compound 1 µM, partner dose 2 µM) | 104% | 98.7% | 127% | 100% | 114% | 90.6% | 86.1% | 76.2% | 95.1% | 127% | 1.38% | 3.57% | 24.3% | 32.7% | 38.1% | 72.6% | 98.5% | 106% | 31.9%
9 | CC(=O)O[C@@]12CO[C@@H]1C[C@H](O)[C@@]1(C)C(=O)[C@H](O)C3=C(C)[C@@H](OC(=O)[C@H](O)[C@@H](NC(=O)OC(C)(C)C)c4ccccc4)C[C@@](O)([C@@H](OC(=O)c4ccccc4)[C@H]21)C3(C)C [Docetaxel] + COc1ccc(COc2ccc(Cc3cnc(N)nc3N)cc2OC)cc1 [GW2580] (first compound 0.0005 µM, partner dose 5 µM) | 13.8% | 37.9% | 33.9% | 42% | 59.4% | 36.6% | 39.1% | 20.3% | 22.5% | 53.2% | 12.9% | 13.6% | 38.9% | 28.9% | 60.2% | 57.8% | 34.9% | 31.2% | 28%
10 | Nc1ncn([C@H]2C[C@H](O)[C@@H](CO)O2)c(=O)n1 [decitabine] + c1cc(-c2cnn3cc(-c4ccc(OCCN5CCCCC5)cc4)cnc23)ccn1 [Dorsomorphin] (first compound 0.5 µM, partner dose 2 µM) | 52.1% | 52.7% | 71.2% | 71% | 104% | 69.6% | 62.5% | 61.9% | 44.9% | 117% | 68.3% | 79.5% | 107% | 57.7% | 78.5% | 71.8% | 64.9% | 61.4% | 71.8%
11 | Nc1ccn([C@@H]2O[C@H](CO)[C@@H](O)C2(F)F)c(=O)n1 [gemcitabine] + N#Cc1c(O)c2c(-c3ccc(-c4ccccc4O)cc3)csc2[nH]c1=O [A769662] (first compound 0.002 µM, partner dose 10 µM) | 35.8% | 52.8% | 43.9% | 66.7% | 68.5% | 55.3% | 86.4% | 40.3% | 62.5% | 60.2% | 105% | 71.7% | 117% | 87.1% | 112% | 84% | 90.7% | 71.3% | 100%
12 | Nc1ncn([C@H]2C[C@H](O)[C@@H](CO)O2)c(=O)n1 [decitabine] + O=c1cc(-c2cccc3c2Sc2ccccc2S3)oc(N2CCOCC2)c1 [KU55933] (first compound 0.5 µM, partner dose 5 µM) | 70.7% | 61.4% | 80% | 87.3% | 129% | 79.5% | 77.7% | 50.4% | 80.4% | 92.8% | 56.9% | 79.2% | 108% | 64.8% | 104% | 65.2% | 73.6% | 79.1% | 73.6%
13 | Nc1ncn([C@H]2C[C@H](O)[C@@H](CO)O2)c(=O)n1 [decitabine] + Oc1cc(-c2nc(-c3ccccc3)[nH]c2-c2ccncc2)ccc1Cl [L779450] (first compound 0.5 µM, partner dose 1 µM) | 53.6% | 52.4% | 82.3% | 87.3% | 100% | 69.1% | 92.4% | 69.6% | 97.8% | 68.9% | 40.3% | 24.4% | 90.3% | 50.9% | 82.8% | 46.1% | 43.2% | 55% | 57.1%
14 | CO[C@H]1C[C@@H]2CC[C@@H](C)[C@@](O)(O2)C(=O)C(=O)N2CCCC[C@H]2C(=O)O[C@H]([C@H](C)C[C@@H]2CC[C@@H](OCCO)[C@H](OC)C2)CC(=O)[C@H](C)/C=C(\C)[C@@H](O)[C@@H](OC)C(=O)[C@H](C)C[C@H](C)/C=C/C=C/C=C/1C [everolimus] + CCCCCCCCCCCC1=C(O)C(=O)C=C(O)C1=O [Embelin] (first compound 0.1 µM, partner dose 6 µM) | 61.7% | 84.6% | 60.4% | 74.5% | 92.9% | 62.1% | 82.9% | 77.4% | 71.2% | 84% | 55.7% | 61.6% | 82.4% | 72.8% | 96.3% | 66.5% | 65.1% | 70.7% | 69.9%
15 | Nc1ncn([C@H]2C[C@H](O)[C@@H](CO)O2)c(=O)n1 [decitabine] + N#Cc1c(O)c2c(-c3ccc(-c4ccccc4O)cc3)csc2[nH]c1=O [A769662] (first compound 0.5 µM, partner dose 10 µM) | 91.9% | 51% | 79.3% | 77.8% | 104% | 88.9% | 89.2% | 64.3% | 88.6% | 93.7% | 77.2% | 88% | 86.7% | 72% | 112% | 95.3% | 65.8% | 83.6% | 106%
16 | Nc1ccn([C@@H]2O[C@H](CO)[C@@H](O)C2(F)F)c(=O)n1 [gemcitabine] + O=C1NC(=O)/C(=C/c2ccc(-c3ccc(F)cc3O)o2)S1 [AS252424] (first compound 0.002 µM, partner dose 5 µM) | 39.5% | 44.9% | 41.2% | 52.2% | 81% | 55.9% | 88.4% | 36.9% | 75.3% | 59.6% | 117% | 100% | 106% | 73.9% | 98.6% | 95.6% | 69.1% | 65.2% | 98.8%
